Reference: PubChem BioAssay AID651820 (National Center for Advancing Translational Sciences (NCATS), 2012)
The whole screen tested about 340,000 compounds, of which about 12,000 (3.5%) were called active. The inconclusive results got no clear call from the source; some entries with a clear call stand among them for comparison. The call rests on the fitted dose curve; in most records, active means well fitted inhibition curve with a large enough effect; inconclusive means small, poorly fitted or top-dose-only effect, or another doubt; inactive means no such curve, though single readings can be large or run the other way. No potency is given beside an inconclusive call; the fits are too rough.

Assay: qHTS Assay for Inhibitors of Hepatitis C Virus (HCV)
Details: Huh7.5.1 HCVcc-Cre (HCVcc is cell-culture hepatitis C virus) infection, luciferase reporter, 44 h; series mostly up to 41.8 µM
How it was run: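 1,000 cells/well; 4 h culture; + compound; + HCVcc-Cre (~0.5 moi); 44 h; luciferase substrate, RT 15 min; read 15 sec.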
Potency means the concentration at half of the fitted maximal effect; tags describe the fitted curve by direction and shape.

**Q.** Which Potency does the source give for `CN1CCN(Cc2nc3c(c(=O)n(C)c(=O)n3C)n2Cc2cccc3ccccc23)CC1` here?
**A.** inconclusive [inhibitor, single point]

**Q.** With `CC(C)(C)OC1NS(=O)(=O)OCC1NCOC(Cl)(Cl)Cl` (configuration not stated) as the molecule, how does the Potency read?
**A.** inactive

**Q.** Which Potency does the source give for `O=c1c(C(c2ccc(O)cc2)c2c(O)nc3n(c2=O)CCCS3)c(O)nc2n1CCCS2` here?
**A.** inactive

**Q.** For `Cc1nn(C)cc1CN1CCCC(C(=O)c2ccc(-c3ccccc3)cc2)C1` (configuration not stated), which Potency is on record?
**A.** active: 4.47 µM

**Q.** Which Potency does the source give for `COc1ccc(CC(=O)Nc2cccc(-c3nnc(-c4ccc(C)cc4)o3)c2)cc1OC` here?
**A.** active: 3.16 µM

**Q.** With `O=C(NC1CCOC1)c1cc(COc2cccc(C(F)(F)F)c2)on1` (configuration not stated) as the molecule, how does the Potency read?
**A.** inconclusive [inhibitor, partial curve]

**Q.** Which Potency does the source give for `O=C(c1cc(C2CC2)nn1-c1ccccc1)N1CCN(S(=O)(=O)c2c(F)cccc2F)CC1` here?
**A.** inconclusive [inhibitor, single point]

**Q.** For `Cc1c(C(=O)Nc2c(F)cccc2F)sc2ncnc(N3CCN(c4ccccc4)CC3)c12`, which Potency is on record?
**A.** inconclusive [inhibitor, single point]

**Q.** Which Potency does the source give for `O=C(N/N=C/c1ccc([N+](=O)[O-])o1)c1cc(-c2cccc(Br)c2)nc2ccccc12` here?
**A.** active: 10 µM

**Q.** Which Potency does the source give for `O=C(O)CCCCCN1C(=O)/C(=C\c2cn(-c3ccccc3)nc2-c2cccs2)SC1=S` here?
**A.** inactive

**Q.** With `CC(C)N(Cc1ccccc1)C(=O)COC(=O)c1ccc2c(c1)OCCO2` as the molecule, how does the Potency read?
**A.** inactive

**Q.** With `COc1cccc(N(C(=O)CCl)C(C(=O)NCCc2ccccc2)c2cccs2)c1` (configuration not stated) as the molecule, how does the Potency read?
**A.** active: 0.708 µM

**Q.** Which Potency does the source give for `CCOc1ccccc1N(CC(=O)Nc1cccnc1)S(=O)(=O)c1ccc(C)cc1` here?
**A.** inactive

**Q.** Which Potency does the source give for `CC(=O)c1ccc(NS(=O)(=O)c2c(C)cc(C)cc2C)cc1` here?
**A.** inactive

**Q.** With `O=C(Cn1nnc(-c2ccccc2Cl)n1)Nc1cccc(S(=O)(=O)N2CCCC2)c1` as the molecule, how does the Potency read?
**A.** inconclusive [inhibitor, single point]

**Q.** With `COc1cc(C(=O)NCc2cccc3ccccc23)ccc1OCc1ccccc1` as the molecule, how does the Potency read?
**A.** inconclusive [inhibitor, partial curve, poor fit]

**Q.** Which Potency does the source give for `CC(C)(C)c1ccc(OCC(O)CN2CCc3ccccc3C2)cc1` (configuration not stated) here?
**A.** inconclusive [inhibitor, single point]

**Q.** For `CC1CCc2nc(N)c(C#N)c(-c3ccncc3)c2C1` (configuration not stated), which Potency is on record?
**A.** inactive

**Q.** With `CCOc1ncccc1C(=O)OCC(=O)Nc1cc(C)ccc1C` as the molecule, how does the Potency read?
**A.** inconclusive [inhibitor, single point]

**Q.** Which Potency does the source give for `COc1ccc(C)cc1NS(=O)(=O)c1ccc2c(c1)CCN2C(C)=O` here?
**A.** inconclusive [inhibitor, single point]

**Q.** Which Potency does the source give for `CC1(C)O[C@@H]2C[C@H]3[C@@H]4CCC5=CC(=O)C=C[C@]5(C)[C@@]4(F)[C@@H](O)C[C@]3(C)[C@]2(C(=O)CO)O1` here?
**A.** inactive

**Q.** Which Potency does the source give for `Cc1cc(/C=C2\SC(=O)N(C)C2=O)c(C)n1-c1ccc(O)cc1` here?
**A.** inconclusive [inhibitor, partial curve, poor fit]

**Q.** For `Cc1ccc(OCC(=O)N(Cc2cccc(F)c2)C2CCS(=O)(=O)C2)cc1` (configuration not stated), which Potency is on record?
**A.** inactive

**Q.** For `COc1ccc(C2=NOC(C(=O)NCc3ccc(F)cc3)C2)cc1OC` (configuration not stated), which Potency is on record?
**A.** inconclusive [inhibitor, full curve, poor fit]

**Q.** Which Potency does the source give for `COc1cc2oc(-c3ccc(O)cc3)cc(=O)c2c(O)c1OC` here?
**A.** inconclusive [inhibitor, partial curve]

**Q.** Which Potency does the source give for `Cc1cc(N(CCCl)CCCl)ccc1C=NNC(=O)Cc1cc(=O)oc2cc(O)ccc12` here?
**A.** inconclusive [inhibitor, partial curve, poor fit]

**Q.** For `CN(Cc1cn(C)nc1-c1ccc(Oc2ccccc2)cc1)CC1COCCO1` (configuration not stated), which Potency is on record?
**A.** inconclusive [inhibitor, single point]

**Q.** With `COc1cc(Nc2nc(-c3ccccc3)c3cc(C)ccc3n2)cc(OC)c1OC` as the molecule, how does the Potency read?
**A.** active: 10 µM

**Q.** For `N=c1n(Cc2ccccc2)c2ccccc2n1CC(O)c1ccccc1` (configuration not stated), which Potency is on record?
**A.** inconclusive [inhibitor, single point]

**Q.** For `Cc1ccc(C)c(-n2sc3ccc(F)cc3c2=O)c1`, which Potency is on record?
**A.** inconclusive [inhibitor, single point]

**Q.** Which Potency does the source give for `Cc1ccc(Sc2c(C=O)c3ccccc3n2C)cc1` here?
**A.** active: 11.2 µM

**Q.** With `COc1ccc(C2=CC(c3ccc4c(c3)OCO4)c3c(c4ccccc4oc3=O)O2)cc1OC` (configuration not stated) as the molecule, how does the Potency read?
**A.** inconclusive [inhibitor, partial curve]

**Q.** Which Potency does the source give for `Cc1cc(C)c(S(=O)(=O)NCc2cccs2)cc1C` here?
**A.** inactive

**Q.** Which Potency does the source give for `CCOCCCNC(=O)/C=C1\Sc2ccccc2N(Cc2ccccc2F)C1=O` here?
**A.** inconclusive [inhibitor, full curve]

**Q.** For `CC(Oc1ccccc1)c1nnc(SCC(=O)NC2CC2)n1C` (configuration not stated), which Potency is on record?
**A.** inactive

**Q.** For `Fc1ccc(/C=N/Nc2ccccn2)cc1`, which Potency is on record?
**A.** inactive

**Q.** For `Cc1cc(C)cc(OCC(=O)NCC2CCCO2)c1` (configuration not stated), which Potency is on record?
**A.** inactive

**Q.** Which Potency does the source give for `Cc1cccc(NC(=O)CCNC(=O)c2ccc(Br)cc2)c1` here?
**A.** inconclusive [inhibitor, single point]

**Q.** With `CCCCn1c(N)c(N(CC(C)C)C(=O)CSCc2ccc(Cl)c(Cl)c2)c(=O)[nH]c1=O` as the molecule, how does the Potency read?
**A.** inconclusive [inhibitor, full curve, poor fit]

**Q.** For `O=C(CN(C(=O)CNC(=O)c1ccco1)c1ccc2c(c1)OCO2)NC1CCCCC1`, which Potency is on record?
**A.** inactive

**Q.** For `COc1cc(/C=C/C(=O)OCC(=O)Nc2cc(S(=O)(=O)N(C)C)ccc2Cl)ccc1O`, which Potency is on record?
**A.** inconclusive [inhibitor, partial curve]

**Q.** Which Potency does the source give for `COc1ccc(/C=C/C2=CCN(C)CC2)cc1` here?
**A.** inactive

**Q.** For `Cc1onc(-c2ccccc2Cl)c1C(=O)N1CCc2ccccc21`, which Potency is on record?
**A.** inconclusive [inhibitor, single point]

**Q.** With `O=C(c1ccccc1)C1CCN(C(=O)Nc2ccccc2)CC1` as the molecule, how does the Potency read?
**A.** inconclusive [inhibitor, partial curve]

**Q.** For `COc1ccccc1NC(=O)C1CCN(S(C)(=O)=O)CC1`, which Potency is on record?
**A.** inactive

**Q.** Which Potency does the source give for `CCOC(=O)c1cnc(-n2nc(C)cc2C)nc1NCc1ccccc1` here?
**A.** inconclusive [inhibitor, single point]

**Q.** Which Potency does the source give for `COc1ccc(/C=C\c2nc(=O)c3ccccc3o2)cc1` here?
**A.** inactive
